Test results from US20250000946A1 (WUXI BIOLOGICS IRELAND, published 2025).

Key:
[1] = target: T1, Human IL-2Rα/β/γ complex (high affinity IL-2 receptor) (human, UniProt P01589 22-272; P14784 27-551; P31785 23-369); assay: FACS, MJ20 cells; EC50 fold vs T2U0.E44-1
T1 construct: whole, on cells
T1 sequence (looked up) 1: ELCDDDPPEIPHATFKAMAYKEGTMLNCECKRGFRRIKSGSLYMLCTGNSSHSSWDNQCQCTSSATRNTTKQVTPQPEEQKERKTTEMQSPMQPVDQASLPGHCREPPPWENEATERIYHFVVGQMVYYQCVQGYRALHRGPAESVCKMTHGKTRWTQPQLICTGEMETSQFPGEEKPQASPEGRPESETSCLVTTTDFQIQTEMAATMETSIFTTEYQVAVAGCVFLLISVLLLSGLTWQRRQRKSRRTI
T1 sequence (looked up) 2: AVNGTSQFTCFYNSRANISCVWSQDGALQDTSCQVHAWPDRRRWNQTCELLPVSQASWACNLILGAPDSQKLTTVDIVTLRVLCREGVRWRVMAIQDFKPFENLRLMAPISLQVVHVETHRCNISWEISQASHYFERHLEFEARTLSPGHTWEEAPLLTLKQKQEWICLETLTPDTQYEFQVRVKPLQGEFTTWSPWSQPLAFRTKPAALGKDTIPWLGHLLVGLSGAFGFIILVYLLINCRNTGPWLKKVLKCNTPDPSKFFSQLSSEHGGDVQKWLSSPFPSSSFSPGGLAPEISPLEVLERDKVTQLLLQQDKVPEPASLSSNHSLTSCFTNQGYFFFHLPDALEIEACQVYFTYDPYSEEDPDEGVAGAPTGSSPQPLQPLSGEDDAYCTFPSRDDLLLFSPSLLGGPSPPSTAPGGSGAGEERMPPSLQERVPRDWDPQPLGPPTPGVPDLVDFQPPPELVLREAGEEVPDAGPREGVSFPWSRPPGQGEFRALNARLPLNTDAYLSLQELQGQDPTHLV
T1 sequence (looked up) 3: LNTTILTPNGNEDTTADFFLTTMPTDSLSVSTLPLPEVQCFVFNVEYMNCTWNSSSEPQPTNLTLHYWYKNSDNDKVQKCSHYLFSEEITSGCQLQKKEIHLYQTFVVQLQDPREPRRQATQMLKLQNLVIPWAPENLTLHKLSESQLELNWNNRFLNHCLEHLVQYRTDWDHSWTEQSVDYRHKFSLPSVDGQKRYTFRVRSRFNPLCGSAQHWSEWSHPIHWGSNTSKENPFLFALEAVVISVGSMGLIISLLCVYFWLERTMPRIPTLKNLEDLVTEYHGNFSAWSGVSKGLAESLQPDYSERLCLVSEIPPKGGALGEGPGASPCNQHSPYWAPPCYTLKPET
Method: (§1) Human cutaneous T cell lymphoma HH cells, malignant non-Hodgkin's lymphoma NK92 cells and cutaneous T cell lymphoma MJ20 cells were used for binding assay. They both constitutively express IL-2Rβ (CD122) and […] (CD132), and NK92 and MJ20 also expresses IL-2Rα (CD25). HH, NK92 and MJ20 cells were cultured following ATCC guidance, then transferred to a 96-plate for binding analysis. Cells were incubated with IL-2/Fc fusion proteins at the indicated concentrations for 30 min at 4° C. to avoid internalization. Binding was detected by 2nd antibody of PE-anti-human Fc at 4° C. for another 30 min. The median fluorescence intensity (MFI) on HH and NK92 cells was measured using FACS.
IL-2 variants of T2U0.E44-6 and T2U0.E44-26 were used to construct bivalent variants W3XX115-T2.Z20-1.uIgG4V322 and W3XX115-T2.Z20-2.uIgG4V322 respectively.

[2] = target: T2, Human IL-2Rβ/γ (intermediate affinity IL-2 receptor) (human, UniProt P14784 27-551; P31785 23-369); assay: cell-based or functional assay
T2 sequence (looked up) 1: T1 sequence (looked up) 2
T2 sequence (looked up) 2: T1 sequence (looked up) 3

[3] = target: T1, Human IL-2Rα/β/γ complex (high affinity …); assay: cell-based or functional assay
[4] = target: T1, Human IL-2Rα/β/γ complex (high affinity …); assay: FACS, MJ20 cells
Method: as §1

[5] = target: T3, W369-hPro1.ECD.His, IL-2Rγ ECD (human, UniProt P31785 23-254); assay: SPR Biacore 8K; variant pre-mixed 1:1 with IL-2Rβ ECD-His, injected over captured IL-2Rγ ECD-His; steady state
T3 construct: Entry includes linker and C-terminal 6xHis tag; also called IL-2Rγc; CD132
T3 sequence: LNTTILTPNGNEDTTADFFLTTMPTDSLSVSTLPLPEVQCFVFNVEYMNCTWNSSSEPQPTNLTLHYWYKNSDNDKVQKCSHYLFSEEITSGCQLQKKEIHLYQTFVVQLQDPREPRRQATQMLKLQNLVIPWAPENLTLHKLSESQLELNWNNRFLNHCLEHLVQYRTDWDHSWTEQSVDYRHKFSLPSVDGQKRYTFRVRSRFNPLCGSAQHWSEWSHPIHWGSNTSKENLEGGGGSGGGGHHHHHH
Method: IL-2 variants binding affinity to IL-2 receptor were detected by SPR using Biacore 8K. For IL-2Rα binding assay, each variant was captured on anti-human Fc immobilized CM5 sensor chip (cytiva). W3XX115-hPro1.ECD.His at different concentrations were injected over the sensor chip at a flow rate of 30 uL/min for an association phase of 60 s, followed by 90 s dissociation. The chip was then regenerated by 10 mM Glycine-HCl pH1.5 after each binding cycle. For IL-2Rγ binding assay, IL-2 variants were mixed with W369-hPro2.ECD.His as 1:1 before assay, were detected by SPR using Biacore 8K. W3XX115-hPro1.ECD.His was captured on anti-His immobilized CM5 sensor chip (cytiva). The mixture were injected over the sensor chip as described above. The sensorgrams of blank surface and buffer channel were subtracted from the test sensorgrams. The experimental data was fitted by steady state affinity model. Molecular weight of W3XX115-hPro1.ECD.His or W369-hPro1.ECD.His was used to calculate the molar concentration of analyte.

- Affinity reduction [1]: 1 fold
- Human CD8+ T Potency EC50 (STAT5 phosphorylation) [2]: 3.65 nM
- Human CD8+ T Potency reduction [2]: 1 fold
- Human Treg Potency EC50 (STAT5 phosphorylation) [3]: 0.0014 nM
- Human Treg Potency reduction [3]: 1 fold
- EC50 [4]: 41.9 nM
- Kd [5]: 1790 nM
B1: W3XX115-T2U0.E44-1.uIgG4V322 (Fc fusion)
chain: [no letters for about 150 residues]ESKYGPPCPPCPAPEAAGGPSVFLFPPKPKDTLMISRTPEVTCVVVDVSQEDPEVQFNWYVDGVEVHNAKTKPREEQFNSTYRVVSVLTVLHQDWLNGKEYKCKVSNKGLPSSIEKTISKAKGQPREPQVYTLPPCQEEMTKNQVSLWCLVKGFYPSDIAVEWESNGQPENNYKTTPPVLDSDGSFFLYSRLTVDKSRWQEGNVFSCSVMHEALHNHYTQKSLSLSLG
heavy: EIQLQQSGPELVKPGASVKVSCKASGYSFTDYNMYWVKQSHGESLEWIGYIDPYNGGTRYNQKFKGKATLTVDKSSSTAFMHLNSLTSEDSAVYYCARNGHWDGAWFAYWGQGTLVTVSAASTKGPSVFPLAPCSRSTSESTAALGCLVKDYFPEPVTVSWNSGALTSGVHTFPAVLQSSGLYSLSSVVTVPSSSLGTKTYTCNVDHKPSNTKVDKRVESKYGPPCPPCPAPEAAGGPSVFLFPPKPKDTLMISRTPEVTCVVVDVSQEDPEVQFNWYVDGVEVHNAKTKPREEQFNSTYRVVSVLTVLHQDWLNGKEYKCKVSNKGLPSSIEKTISKAKGQPREPQVCTLPPSQEEMTKNQVSLSCAVKGFYPSDIAVEWESNGQPENNYKTTPPVLDSDGSFFLVSRLTVDKSRWQEGNVFSCSVMHEALHNHYTQKSLSLSLG
light: DIQMNQSPSSLSASLGDTITITCHASQNINVWLSWYQQKPGNIPKLLIYKASNLHTGVPSRFSGSRSGTGFTLTISSLQPEDIATYYCHQGQSYPFTFGSGTKLEIKRTVAAPSVFIFPPSDEQLKSGTASVVCLLNNFYPREAKVQWKVDNALQSGNSQESVTEQDSKDSTYSLSSTLTLSKADYEKHKVYACEVTHQGLSSPVTKSFNRGEC
notes: WT IL-2, no linker, IgG4 Fc with FALA, one Fab arm (E44 format); also called T20.E44-1; wild-type IL-2
